# The supplement of paper PMC4166925
# ± gives the standard deviation of the averaged measurements. Over roughly 33,000 sequences, “E-score (dimensionless, -0.5 to 0.5)” has its median near -0.046; the highest 2% begin near 0.36. The list shows a part of the results.
# System: T1, SpTbr T-box DNA-binding domain (GST fusion)
# T1 sequence: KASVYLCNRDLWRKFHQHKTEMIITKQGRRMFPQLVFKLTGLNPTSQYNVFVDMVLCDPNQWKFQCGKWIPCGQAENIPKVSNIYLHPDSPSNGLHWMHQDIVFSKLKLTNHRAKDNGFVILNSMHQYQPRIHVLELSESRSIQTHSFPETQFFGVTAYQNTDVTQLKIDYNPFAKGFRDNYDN
# Test: PBM E-score of 8-mer (E-score (dimensionless, -0.5 to 0.5)); Tbr is Tbrain of the sea star Patiria miniata (Pm) or the sea urchin Strongylocentrotus purpuratus (Sp); higher = stronger binding preference; most listed sequences are background and not binding sites
# Settings: the construct has about 5 more residues each side
# In short: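 Universal Agilent oligonucleotide arrays, made double-stranded by primer extension, were incubated with 200 nM GST-fused Tbr T-box DNA-binding domain in PBS (pH 7.5). The protein was expressed in BL21 E. coli at 20 °C and purified by glutathione affinity chromatography. After scanning and quantification, the Universal PBM Analysis Suite assigned an enrichment E-score to each ungapped 8-mer, averaged over duplicate arrays.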
row,Sequence,PBM E-score of 8-mer
1,GTCGCTAA,0.264 ± 0.016
2,ATATGCAA,-0.118 ± 0.0049
3,CTGGTCCC,-0.198 ± 0.087
4,CCAACGAG,-0.106 ± 0.031
5,AACTATTA,-0.038 ± 0.054
6,ACTTAATG,-0.1 ± 0.055
7,AGGCCGTG,0.0787 ± 0.042
8,AAGTAATT,-0.161 ± 0.074
9,ATTATTTC,0.0521 ± 0.066
10,CCTCCCAG,0.0604 ± 0.011
11,CACAACGC,0.126 ± 0.03
12,GAATGCGA,0.0408 ± 0.00057
13,AGTAGCTA,-0.0118 ± 0.026
14,CTATCCAG,-0.244 ± 0.046
15,AGCATACA,0.1 ± 0.023
16,GTTTCGGA,-0.175 ± 0.034
17,GGTAGCAC,0.343 ± 0.022
18,CGGTGGAG,-0.07 ± 0.051
19,CTCAAGCC,-0.0843 ± 0.083
20,GAGAGAGC,0.034 ± 0.00057
21,CGGCCGAA,-0.16 ± 0.027
22,AGCCTTAT,-0.0413 ± 0.025
23,GGGATCAA,-0.0837 ± 0.014
24,GACGGACA,-0.0314 ± 0.026
25,CGCCATGA,0.0197 ± 0.041

row,Sequence,PBM E-score of 8-mer
1,TACTGTAA,-0.0785 ± 0.0084
2,ATTGTCTC,-0.0507 ± 0.043
3,TGAAACCA,-0.0205 ± 0.016
4,AGTAGGCG,0.0676 ± 0.025
5,CTATAGTA,-0.211 ± 0.015
6,CAACTCGA,0.144 ± 0.0075
7,ACGACTGA,-0.0336 ± 0.017
8,ATTTCAAA,-0.185 ± 0.056
9,CACGCGCA,0.196 ± 0.077
10,AATAGCTG,0.00317 ± 0.056
11,GGTGGGAA,0.359 ± 0.011
12,CCTCCGCC,0.077 ± 0.081
13,ATCCTTGA,-0.224 ± 0.0075
14,CGAGATGC,-0.0323 ± 0.032
15,GGGACCCA,-0.0579 ± 0.032
16,ACCCTCAA,0.0515 ± 0.079
17,AATTTCCG,-0.265 ± 0.02
18,ATATCAGG,-0.117 ± 0.026
19,AGACGTGA,0.145 ± 0.038
20,CGTCATGC,-0.0622 ± 0.021
21,ATCAATGG,-0.0599 ± 0.011
22,CCGATAGG,0.00486 ± 0.048
23,AACTGAGC,-0.217 ± 0.015
24,AGACATGG,-0.384 ± 0.04
25,GTTTGTGA,0.0633 ± 0.034

row,Sequence,PBM E-score of 8-mer
1,AGTTGATC,0.0379 ± 0.12
2,ACTGCCAA,0.0734 ± 0.024
3,AGGAGAAT,-0.211 ± 0.021
4,AGAATATC,-0.106 ± 0.057
5,ACGAACGA,-0.0913 ± 0.06
6,AAGGTCTC,-0.163 ± 0.025
7,AACCCCTG,-0.108 ± 0.043
8,TTCGCAAA,0.182 ± 0.0032
9,GCAACGAA,-0.107 ± 0.045
10,ATCTAAAC,-0.121 ± 0.043
11,ATGACGTC,-0.0941 ± 0.026
12,AATTGATG,-0.227 ± 0.065
13,AACAGGTT,0.285 ± 0.023
14,AGTTCATG,0.0961 ± 0.014
15,CAATCAGC,-0.00392 ± 0.024
16,CATGCGCC,-0.226 ± 0.0069
17,CCCAGCGC,0.0103 ± 0.049
18,AATTGCAA,0.112 ± 0.016
19,ATAACAGA,0.0616 ± 0.029
20,ACCGACTG,-0.0985 ± 0.015
21,AACAAAAC,0.0715 ± 0.0016
22,AGGGTTGA,0.0113 ± 0.017
23,AAATCCTT,-0.0811 ± 0.024
24,CACCGGTC,-0.146 ± 0.1
25,CAGTAGGA,-0.074 ± 0.042

row,Sequence,PBM E-score of 8-mer
1,TACCGGCA,-0.169 ± 0.033
2,AGACCGGG,-0.224 ± 0.05
3,CTCGAATC,0.0369 ± 0.033
4,CCCGGGCA,-0.00186 ± 0.025
5,AGCGCTAG,0.214 ± 0.014
6,CTACCTCA,-0.07 ± 0.025
7,CATGTCCG,-0.193 ± 0.056
8,ACGCAAGG,0.148 ± 0.019
9,CACACGCG,0.241 ± 0.057
10,CCGGACGA,-0.223 ± 0.017
11,CCTTCAGA,-0.253 ± 0.038
12,GAGATTCC,-0.0288 ± 0.021
13,AATCTTCC,-0.133 ± 0.036
14,ATGTTAGG,-0.129 ± 0.0019
15,AGAAGTCT,-0.117 ± 0.026
16,CACAAACA,0.0857 ± 0.017
17,CTACATTA,-0.258 ± 0.011
18,AGAACACC,0.101 ± 0.0043
19,CCATTAGA,-0.214 ± 0.039
20,ATCTAATG,-0.163 ± 0.025
21,ACACAAGA,-0.0687 ± 0.0099
22,ATTACGAC,-0.142 ± 0.079
23,GAGTCCCA,-0.36 ± 0.077
24,CCCGTTCC,0.0804 ± 0.0012
25,AAACTTAA,-0.103 ± 0.0044

row,Sequence,PBM E-score of 8-mer
1,AGTTAGGG,-0.209 ± 0.0084
2,TAGAAAGA,-0.285 ± 0.0039
3,AATAGGAG,-0.339 ± 0.037
4,GACGCAGC,-0.0752 ± 0.027
5,AGAAGCGC,0.0884 ± 0.0027
6,AATTGAAG,-0.281 ± 0.037
7,ACTAGGAG,-0.0309 ± 0.06
8,ACTCTTAC,-0.0597 ± 0.021
9,AAGTGTAG,0.144 ± 0.0052
10,CGGTCCGA,-0.15 ± 0.019
11,GTGTACGA,-0.00414 ± 0.036
12,ACAAGCAC,0.112 ± 0.036
13,AAAAAGTG,0.213 ± 0.073
14,CCGGTCGC,0.163 ± 0.012
15,GCCCAGAC,-0.133 ± 0.029
16,CCTGAAAA,0.0275 ± 0.083
17,ATAGTGAT,-0.019 ± 0.059
18,AATAAGTA,-0.0666 ± 0.068
19,AGATTTGA,-0.0264 ± 0.068
20,GCGCCCTA,0.0642 ± 0.093
21,ATCTTTCA,-0.153 ± 0.076
22,AGTCTTGC,-0.0336 ± 0.016
23,AGTCCAAC,-0.0297 ± 0.006
24,GGGGTTCA,-0.015 ± 0.022
25,AAGCCCTT,-0.113 ± 0.022

row,Sequence,PBM E-score of 8-mer
1,CATACCCA,-0.175 ± 0.12
2,AGGGGACG,-0.173 ± 0.0034
3,CTGGTTCA,-0.00744 ± 0.012
4,CGACACTA,0.324 ± 0.0086
5,AGAACAAC,-0.0673 ± 0.051
6,CATTTATA,-0.165 ± 0.021
7,GCCGTGGA,0.00788 ± 0.02
8,CACCGTGC,0.112 ± 0.019
9,CCGCGGAA,-0.0697 ± 0.016
10,CCCGGACC,-0.2265 ± 0.0013
11,CTACGAAA,-0.0722 ± 0.03
12,CATAAAGA,-0.0483 ± 0.0071
13,AGCACCAC,0.0591 ± 0.021
14,TCAGTACA,-0.134 ± 0.012
15,GCCGTGCC,-0.0405 ± 0.00037
16,AATACCGT,-0.0892 ± 0.048
17,CTCTGACA,0.233 ± 0.019
18,ATGTTCCC,-0.1414 ± 0.00052
19,AACTGCAA,-0.103 ± 0.028
20,CCCCGTCA,0.245 ± 0.0076
21,ACCCCTAG,-0.117 ± 0.067
22,ACGTATAA,-0.135 ± 0.027
23,ATTCCAGC,-0.127 ± 0.044
24,AGTCTTCC,-0.178 ± 0.0065
25,CGGATGCA,-0.114 ± 0.0027

row,Sequence,PBM E-score of 8-mer
1,GGTGAGAC,0.3819 ± 0.0012
2,GAATTTGC,0.161 ± 0.00052
3,AGGAAAGC,-0.18 ± 0.0045
4,ACTAAAGT,-0.0358 ± 0.015
5,CGACAATC,0.187 ± 0.014
6,CTTGAAGC,-0.0884 ± 0.014
7,GAACTCAC,0.041 ± 0.0073
8,ATAGGCGC,0.263 ± 0.0076
9,CGGGTCTA,0.0644 ± 0.047
10,AGTAGTGG,-0.0265 ± 0.028
11,ACTGACCC,-0.251 ± 0.056
12,AGGCGGGC,0.0171 ± 0.099
13,ACATGTCA,0.219 ± 0.053
14,AATTAGAA,-0.104 ± 0.028
15,ATAAAGGC,-0.081 ± 0.012
16,ACCCGTAC,-0.238 ± 0.044
17,AGAACTCA,-0.148 ± 0.087
18,CCAAACCA,-0.089 ± 0.031
19,GGCGCACC,0.0139 ± 0.06
20,AGACGTAT,0.0364 ± 0.00074
21,AGTGATCA,-0.0115 ± 0.043
22,GTTATTAA,0.0151 ± 0.088
